Laboratory results as given in article PMC6451091.
Some of the results follow. For part of these data: At the low end of the ranking the order means little. For part of these data: Measured with an extract: partners may take part in the binding.

Key:
Conditions in all cases: 20 mM HEPES pH 7.9, 100 mM NaCl, 1 mM DTT, 0.2 mg/mL BSA, 0.02% Triton X-100, 2% milk, 0.4 mg/mL salmon testes DNA; 1 h; temperature not stated; high values mean tight binding; double strand, one strand shown; sequences stand for … in GCCTAGCAC…GTGCTAGGTCTTGATTCGCTTGACGCTGCTG
PU.1 (IVT) = PU.1 (IVT) (UniProt P17947); assay: protein-binding microarray (PBM)
[1] = target: PU.1 (endogenous, THP-1 nuclear extract) (UniProt P17947); assay: nuclear extract protein-binding microarray (nextPBM)
[2] = target: T1, FLI1 (endogenous, THP-1 nuclear extract) (UniProt Q01543); assay: as above
T1 sequence: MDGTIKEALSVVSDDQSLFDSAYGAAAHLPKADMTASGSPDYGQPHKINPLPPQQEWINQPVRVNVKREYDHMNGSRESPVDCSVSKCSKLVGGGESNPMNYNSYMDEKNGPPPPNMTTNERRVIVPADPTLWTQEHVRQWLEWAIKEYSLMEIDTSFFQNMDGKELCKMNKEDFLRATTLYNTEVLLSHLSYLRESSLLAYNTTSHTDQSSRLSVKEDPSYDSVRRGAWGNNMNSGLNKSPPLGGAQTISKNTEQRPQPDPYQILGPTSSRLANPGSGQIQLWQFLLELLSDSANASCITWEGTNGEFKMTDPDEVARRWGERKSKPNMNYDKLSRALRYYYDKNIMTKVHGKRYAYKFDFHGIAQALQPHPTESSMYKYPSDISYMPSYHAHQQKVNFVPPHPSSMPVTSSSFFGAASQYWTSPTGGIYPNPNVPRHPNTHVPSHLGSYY

## CACAAGAGGAAGTGGCAGCT
PU.1 (IVT)
  binding signal: 4.78 z-score
[1]
  binding signal: 5.59 z-score
[2]
  binding signal: 3.12 z-score

## AAAAAAAGGAACAGGCTAGA
PU.1 (IVT)
  binding signal: 2.22 z-score
[1]
  binding signal: 2.21 z-score
[2]
  binding signal: 0.322 z-score

## AAAAAAAGGAAGTGGTGGTT
PU.1 (IVT)
  binding signal: 6.87 z-score
[1]
  binding signal: 6.71 z-score
[2]
  binding signal: 3.6 z-score

## AAAAAGAGGAAGTCTTTTAT
PU.1 (IVT)
  binding signal: 8.71 z-score
[1]
  binding signal: 7.64 z-score
[2]
  binding signal: 4.72 z-score

## TGGGAGAGGAAGTGAGAGAT
PU.1 (IVT)
  binding signal: 3.7 z-score
[1]
  binding signal: 4.05 z-score
[2]
  binding signal: 3.09 z-score

## AGGAGGAGGAAGTGGAGAAA
PU.1 (IVT)
  binding signal: 4.4 z-score
[1]
  binding signal: 4.42 z-score
[2]
  binding signal: 2.73 z-score

## CAAAAAGGGAAGTGGATGCT
PU.1 (IVT)
  binding signal: 6.64 z-score
[1]
  binding signal: 6.66 z-score
[2]
  binding signal: 2.73 z-score

## CTAAAGAGGAAGTGGGATGC
PU.1 (IVT)
  binding signal: 6.64 z-score
[1]
  binding signal: 6.93 z-score
[2]
  binding signal: 3.69 z-score

## CAATAAGGGAAGTGGATGCT
PU.1 (IVT)
  binding signal: 4.24 z-score
[1]
  binding signal: 5.04 z-score
[2]
  binding signal: 1.82 z-score

## AAAAAAAGGAACTGGGTAGA
PU.1 (IVT)
  binding signal: 4.33 z-score
[1]
  binding signal: 4.14 z-score
[2]
  binding signal: 1.1 z-score

## GAAAAGAGGAAGTGAGATGT
PU.1 (IVT)
  binding signal: 8.73 z-score
[1]
  binding signal: 7.38 z-score
[2]
  binding signal: 4.31 z-score

## CAAAAAGGGAAATGGATGCT
PU.1 (IVT)
  binding signal: 3.74 z-score
[1]
  binding signal: 3.12 z-score
[2]
  binding signal: 1.63 z-score

## GGAAAGAGGAAGTCAAAAAT
PU.1 (IVT)
  binding signal: 7.85 z-score
[1]
  binding signal: 7.24 z-score
[2]
  binding signal: 3.86 z-score

## TGGTTGAGGAAGTGGCTGAG
PU.1 (IVT)
  binding signal: 4.2 z-score
[1]
  binding signal: 4.14 z-score
[2]
  binding signal: 2.35 z-score

## ACAAAAAGGAACTGTGGCCC
PU.1 (IVT)
  binding signal: 1.57 z-score
[1]
  binding signal: 1.54 z-score
[2]
  binding signal: 0.85 z-score

## AGAGGAAGGAAGTGAGTTTG
PU.1 (IVT)
  binding signal: 2.77 z-score
[1]
  binding signal: 2.76 z-score
[2]
  binding signal: 2.38 z-score

## AAAAAAAGGAACTTGCTAGA
PU.1 (IVT)
  binding signal: 5.48 z-score
[1]
  binding signal: 4.85 z-score
[2]
  binding signal: 1.73 z-score

## AAATAAAGGAACTGAATCTA
PU.1 (IVT)
  binding signal: 3.04 z-score
[1]
  binding signal: 2.85 z-score
[2]
  binding signal: 1.28 z-score

## TGAAGAGGGAAGTGGGCAAG
PU.1 (IVT)
  binding signal: 3.11 z-score
[1]
  binding signal: 3.45 z-score
[2]
  binding signal: 1.69 z-score

## GATAAGAGGAAGTACTCTGT
PU.1 (IVT)
  binding signal: 7.44 z-score
[1]
  binding signal: 6.76 z-score
[2]
  binding signal: 3.35 z-score

## TGAAAGAGGAAGTGCAAACA
PU.1 (IVT)
  binding signal: 7.72 z-score
[1]
  binding signal: 7.05 z-score
[2]
  binding signal: 3.91 z-score

## GAAAGGAGGAAGTCAGAGTG
PU.1 (IVT)
  binding signal: 5.26 z-score
[1]
  binding signal: 6.07 z-score
[2]
  binding signal: 2.78 z-score

## CAGATGGGGAAGTGAGAAAG
PU.1 (IVT)
  binding signal: 4.71 z-score
[1]
  binding signal: 5.31 z-score
[2]
  binding signal: 1.94 z-score

## AAAAAGGGGAAGTCATCTAT
PU.1 (IVT)
  binding signal: 8.05 z-score
[1]
  binding signal: 7.41 z-score
[2]
  binding signal: 4.07 z-score

## AGCAGGAGGAAGTGGGTGGA
PU.1 (IVT)
  binding signal: 3.97 z-score
[1]
  binding signal: 4.17 z-score
[2]
  binding signal: 2.69 z-score

## GCCAAGAGGAAGTGGGCAGA
PU.1 (IVT)
  binding signal: 4.28 z-score
[1]
  binding signal: 5.02 z-score
[2]
  binding signal: 2.87 z-score

## TGTGGGAGGAAGTGCTTTTG
PU.1 (IVT)
  binding signal: 4.2 z-score
[1]
  binding signal: 4.14 z-score
[2]
  binding signal: 2.9 z-score

## CGAAAGGGGAAGTGCTATAC
PU.1 (IVT)
  binding signal: 7.3 z-score
[1]
  binding signal: 7.34 z-score
[2]
  binding signal: 3.3 z-score

## GAAAACAGGAAGTCCCCTAG
PU.1 (IVT)
  binding signal: 7.57 z-score
[1]
  binding signal: 7.19 z-score
[2]
  binding signal: 4.94 z-score

## CGTGAGGGGAAGTGACTGAA
PU.1 (IVT)
  binding signal: 3.77 z-score
[1]
  binding signal: 4.18 z-score
[2]
  binding signal: 2.27 z-score

## ATAAAGAGGAAGTGAAGCCA
PU.1 (IVT)
  binding signal: 7.27 z-score
[1]
  binding signal: 7.06 z-score
[2]
  binding signal: 3.7 z-score

## ACAAAATGGAACTGTGCCCC
PU.1 (IVT)
  binding signal: 0.102 z-score
[1]
  binding signal: 0.136 z-score
[2]
  binding signal: 0.258 z-score

## TGATAAGGGAAGTGAAGCTC
PU.1 (IVT)
  binding signal: 3.39 z-score
[1]
  binding signal: 3.7 z-score
[2]
  binding signal: 1.79 z-score

## TCCAAGAGGAAGTGGGAGTC
PU.1 (IVT)
  binding signal: 4.14 z-score
[1]
  binding signal: 5.14 z-score
[2]
  binding signal: 2.81 z-score

## TAATAGAGGAAGTTGGCACA
PU.1 (IVT)
  binding signal: 6.59 z-score
[1]
  binding signal: 6.53 z-score
[2]
  binding signal: 3.34 z-score

## GCATAAAGGAAGTGGTTATG
PU.1 (IVT)
  binding signal: 3.06 z-score
[1]
  binding signal: 2.91 z-score
[2]
  binding signal: 2.43 z-score

## GAAATGAGGAACTGATGCGG
PU.1 (IVT)
  binding signal: 6.62 z-score
[1]
  binding signal: 6.33 z-score
[2]
  binding signal: 2.49 z-score

## AAAAAGGGGAAGTGATGGCG
PU.1 (IVT)
  binding signal: 8.22 z-score
[1]
  binding signal: 7.35 z-score
[2]
  binding signal: 3.52 z-score

## TGAAAGAAGAAGTGCAACCA
PU.1 (IVT)
  binding signal: 2.19 z-score
[1]
  binding signal: 2.61 z-score
[2]
  binding signal: -0.0474 z-score

## TGAAAGAGGAAGTCTGGGTG
PU.1 (IVT)
  binding signal: 6.38 z-score
[1]
  binding signal: 6.68 z-score
[2]
  binding signal: 3.33 z-score

## TAAAAGAGGAAGTGTTTTAG
PU.1 (IVT)
  binding signal: 8.26 z-score
[1]
  binding signal: 7.47 z-score
[2]
  binding signal: 4.05 z-score

## TAAATGAGGAAGTGCTCAAG
PU.1 (IVT)
  binding signal: 7.81 z-score
[1]
  binding signal: 7.45 z-score
[2]
  binding signal: 3.65 z-score

## ACGAAGAGGAAGTAAAAGTG
PU.1 (IVT)
  binding signal: 5.9 z-score
[1]
  binding signal: 6.25 z-score
[2]
  binding signal: 3.33 z-score

## TTACAGAGGAAGTGAGGATT
PU.1 (IVT)
  binding signal: 3.36 z-score
[1]
  binding signal: 3.07 z-score
[2]
  binding signal: 2.76 z-score

## GGGGAAAGGAAGTGCATAAA
PU.1 (IVT)
  binding signal: 2.18 z-score
[1]
  binding signal: 1.81 z-score
[2]
  binding signal: 2.51 z-score

## CCAAAAGGGAAGTGGATGCT
PU.1 (IVT)
  binding signal: 4.98 z-score
[1]
  binding signal: 5.05 z-score
[2]
  binding signal: 2.58 z-score

## AGAAAGGGGAAGTGAGCACA
PU.1 (IVT)
  binding signal: 7.09 z-score
[1]
  binding signal: 7.11 z-score
[2]
  binding signal: 3.51 z-score

## GAAGAGGGGAAGTGGGACCA
PU.1 (IVT)
  binding signal: 3.46 z-score
[1]
  binding signal: 3.57 z-score
[2]
  binding signal: 1.92 z-score

## AGAAAGAGGAAGAGCCTCAG
PU.1 (IVT)
  binding signal: 5.13 z-score
[1]
  binding signal: 5.6 z-score
[2]
  binding signal: 1.81 z-score

## AGGAACGGGAAGTGAGCTAC
PU.1 (IVT)
  binding signal: 4.22 z-score
[1]
  binding signal: 4.97 z-score
[2]
  binding signal: 2.26 z-score

## AAAATGGGGAAGTGACCTTA
PU.1 (IVT)
  binding signal: 7.47 z-score
[1]
  binding signal: 7.38 z-score
[2]
  binding signal: 4.1 z-score

## ACAAAAATGAACTGTGCCCC
PU.1 (IVT)
  binding signal: 0.00141 z-score
[1]
  binding signal: -0.385 z-score
[2]
  binding signal: -0.696 z-score

## GCTTTAGGGAACTACTGTGG
PU.1 (IVT)
  binding signal: 3.58 z-score
[1]
  binding signal: 3.29 z-score
[2]
  binding signal: 0.606 z-score

## AAAAAGAGGAAGAGAAATAG
PU.1 (IVT)
  binding signal: 6.3 z-score
[1]
  binding signal: 6.4 z-score
[2]
  binding signal: 2.23 z-score

## GGTTTGAGGAAGTGGATCAT
PU.1 (IVT)
  binding signal: 6.52 z-score
[1]
  binding signal: 6.49 z-score
[2]
  binding signal: 3.18 z-score

## GTGTTAGGGAAGTGGTGAGT
PU.1 (IVT)
  binding signal: 3 z-score
[1]
  binding signal: 3.5 z-score
[2]
  binding signal: 1.29 z-score

## CAAAAGAGGAAGTCAATACA
PU.1 (IVT)
  binding signal: 7.84 z-score
[1]
  binding signal: 7.38 z-score
[2]
  binding signal: 3.79 z-score
